Literature values in patent US11390900B2, “Antimicrobial cartridges and processes for multiplexed antimicrobial susceptibility testing” (priority 2018, dated 2022).
Where two headings read alike, the source gives them in different places. At least one structure is not confirmed: it was looked up by name or label, or the drawing left a doubt.

What was measured:
E. faecalis 29212 = conditions: MIC range, cited from earlier work
S. aureus 29213 = conditions: MIC range, cited from earlier work
K. pneumoniae 700603 = conditions: MIC range, K. pneumoniae 700603, Gram negative panel; cited from earlier work
K. pneumoniae BAA-2814 = conditions: MIC range, K. pneumoniae BAA-2814, Gram negative panel; cited from earlier work
E. coli 25922 = conditions: MIC range, E. coli 25922, Gram negative panel; cited from earlier work
[1] = E. faecalis 29212, Gram negative panel
[2] = E. faecalis 29212, Gram positive panel
[3] = S. aureus 29213, Gram negative panel
[4] = S. aureus 29213, Gram positive panel

Compound: C[C@H]1COc2c(N3CCN(C)CC3)c(F)cc3c(=O)c(C(=O)O)cn1c23 [Levofloxacin]
- CLSI-Defined QC Range (E. faecalis 29212; [1]): 0.25 to 2 µg/mL
- CLSI-Defined QC Range (E. faecalis 29212; [2]): 0.25 to 2 µg/mL

Compound: COc1c(N2C[C@@H]3CCCN[C@@H]3C2)c(F)cc2c(=O)c(C(=O)O)cn(C3CC3)c12 [Moxifloxacin]
- CLSI-Defined QC Range (E. faecalis 29212; [2]): 0.06 to 0.5 µg/mL
- CLSI-Defined QC Range (S. aureus 29213; [3]): 0.016 to 0.12 µg/mL

Compound: C[C@H]1c2cccc(O)c2C(=O)C2=C(O)[C@]3(O)C(=O)C(C(N)=O)=C(O)[C@@H](N(C)C)[C@@H]3[C@@H](O)[C@@H]21 [Doxycycline]
- CLSI-Defined QC Range (E. faecalis 29212; [1]): 2 to 8 µg/mL
- CLSI-Defined QC Range (E. faecalis 29212; [2]): 2 to 8 µg/mL

Compound: C[C@@H](O)[C@H]1C(=O)N2C(C(=O)O)=C(SCCN=CN)C[C@H]12 [Imipenem]
- CLSI-Defined QC Range (K. pneumoniae 700603): 0.03 to 0.25 µg/mL
- CLSI-Defined QC Range (K. pneumoniae BAA-2814): 16 to 64 µg/mL

Compound: CCC[C@@H]1C[C@@H](C(=O)N[C@@H]([C@H]2O[C@H](SC)[C@H](O)[C@@H](O)[C@H]2O)[C@H](C)Cl)N(C)C1 [Clindamycin]
- CLSI-Defined QC Range (S. aureus 29213; [4]): 0.06 to 0.25 µg/mL

Compound: CN(C)c1ccc(O)c2c1C[C@H]1C[C@H]3[C@H](N(C)C)C(O)=C(C(N)=O)C(=O)[C@@]3(O)C(O)=C1C2=O [Minocycline]
- CLSI-Defined QC Range (E. faecalis 29212; [1]): 1 to 4 µg/mL
- CLSI-Defined QC Range (E. faecalis 29212; [2]): 1 to 4 µg/mL

Compound: COCC1=C(C(=O)O)N2C(=O)[C@@H](NC(=O)/C(=N\OC)c3csc(N)n3)[C@H]2SC1 [Cefpodoxime]
- CLSI-Defined QC Range (S. aureus 29213; [3]): 1 to 8 µg/mL

Compound: CCO/N=C(\C(=O)N[C@@H]1C(=O)N2C(C(=O)[O-])=C(Sc3nc(-c4cc[n+](C)cc4)cs3)CS[C@H]12)c1nsc(N)n1 [Ceftaroline]
- CLSI-Defined QC Range (S. aureus 29213; [3]): 0.12 to 0.5 µg/mL
- CLSI-Defined QC Range (S. aureus 29213; [4]): 0.12 to 0.5 µg/mL

Compound: CN(C)[C@@H]1C(O)=C(C(N)=O)C(=O)[C@@]2(O)C(O)=C3C(=O)c4c(O)cccc4[C@@](C)(O)[C@H]3C[C@@H]12 [Tetracycline]
- CLSI-Defined QC Range (E. coli 25922): 0.5 to 2 µg/mL
- CLSI-Defined QC Range (E. faecalis 29212; [2]): 8 to 32 µg/mL
